Out of some 55,000 compounds screened, about 340 (0.62%) were called active. The inconclusive results got no clear call from the source; some entries with a clear call stand among them for comparison. Calls come from the whole dose curve; as a rule, active = well fitted cell-killing curve with a large enough effect; inconclusive = small, poorly fitted or top-dose-only effect; inactive = no such curve, though single readings can be large or run the other way. Potencies beside an inconclusive call are fits to weak or partial responses and may not hold up.
Experiment: qHTS Screen for Compounds that Selectively Target Cancer Cells with p53 Mutations: Cytotoxicity of p53 Null Cells at the Permissive Temperature; note: nearly all actives have a fitted effect of over 55% in size;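 for activity change, negative = cytotoxicity: 0% = DMSO only and -100% = full killing by 100 µM tamoxifen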
Conditions: H1299-neo p53 null cells, ATP luminescence, 24 h, 32C; series mostly up to 46.1 µM; activity change, negative = cytotoxicity: at the top concentration
Summary of the method: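 AC50 values derive from Hill modelling of qHTS concentration-response data (up to 46 uM) in H1299-neo cells. Cells were treated 24 h at 32C following overnight attachment at 37C; viability was read as cellular ATP.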
In the case of `CCOc1ccc(CNC(=O)c2ccc(NC(=O)N3CCCCc4ccccc43)cc2)cc1`, the “activity change, negative = cytotoxicity” value is reported as inactive: 8.92%. For `Cc1cccc(OCC(=O)Nc2c(C(=O)Nc3ccc(F)cc3)oc3ccccc23)c1`, the Potency was inconclusive: 35.5 µM [cytotoxic, single point]. In the case of `COc1ccccc1NC(=O)c1ncn(-c2ccccc2)n1`, the Potency is reported as inconclusive: 15.8 µM [cytotoxic, partial curve]. For `CCCCN(CCCC)CCCNC(=O)c1ccc2nc(N3CCCCC3)sc2c1`, the “activity change, negative = cytotoxicity” value was inactive: -2.22%. For `CCOc1ccc(-c2cc3nc(C4CCN(C(=O)OC(C)(C)C)CC4)c(C(=O)Nc4ccc(C)cc4C)cn3n2)cc1`, the Potency was inconclusive: 6.31 µM [cytotoxic, single point]. In the case of `Cc1ccc(CNC(=O)Cn2c(=O)n(-c3cccc(Cl)c3)c(=O)c3sc4ccccc4c32)cc1`, the Potency is reported as inconclusive: 35.5 µM [cytotoxic, single point]. For `COc1cc(NC(=O)c2ccc(NC(=O)N3CCSc4ncccc43)cc2)cc(OC)c1`, the Potency was inconclusive: 14.1 µM [cytotoxic, partial curve, poor fit]. With `COc1ccc(OCC(=O)N2CCN(C(=O)c3cccc(OC)c3)CC2)cc1` the “activity change, negative = cytotoxicity” value was inactive: -10.2%. With `COc1ccc2oc(-c3ccc(C)c(NC(=O)CSc4ccc(Cl)cc4)c3)nc2c1` the Potency was inconclusive: 31.6 µM [cytotoxic, single point]. With `O=C(NCc1ccccc1)c1ccc2c(c1)nc1n2CCCCC1` the Potency was inconclusive: 10 µM [cytotoxic, partial curve]. For `COc1ccc(NC(=O)Nc2ccccc2OCc2cc(=O)n3ccccc3n2)c(OC)c1`, the Potency was inconclusive: 25.1 µM [cytotoxic, single point]. For `Cc1ccc(-c2nnn3c2nc(NCc2ccc4c(c2)OCO4)c2ccccc23)cc1`, the Potency was inconclusive: 6.31 µM [cytotoxic, partial curve]. For `Cc1oc2ccc(O)c(CN3CCCC(C)C3)c2c1C(=O)Nc1ccccc1` (stereo unspecified), the “activity change, negative = cytotoxicity” value was inactive: -2.63%. In the case of `COc1ccc(CCNC(=O)CCn2c(=O)c3ccccc3n(Cc3ccccc3C)c2=O)cc1OC`, the Potency is reported as inconclusive: 31.6 µM [cytotoxic, single point]. For `Cc1ccc(-c2nc3c(c(SCC(=O)Nc4cccc(C(=O)O)c4)n2)Cc2cccc(C)c2O3)cc1`, the Potency was inconclusive: 35.5 µM [cytotoxic, single point]. With `Cc1c(CC(=O)NCc2ccccc2Cl)c(=O)oc2cc(O)ccc12` the Potency was inconclusive: 11.2 µM [cytotoxic, partial curve, poor fit]. With `Cc1ccccc1NC(=O)Nc1cccs1` the Potency was inconclusive: 0.0178 µM [cytotoxic, full curve, poor fit]. For `Cc1ccc(NC(=O)Cn2c(=O)ccc3cc(S(=O)(=O)N4CCC(C)CC4)ccc32)cc1C`, the Potency was inconclusive: 2 µM [cytotoxic, partial curve]. For `CCOc1ccc(NC(=O)c2oc3ccccc3c2NC(=O)Cc2cccc(C)c2)cc1`, the Potency was inconclusive: 2.82 µM [cytotoxic, single point]. In the case of `COc1cc2ccccc2cc1C(=O)N1CCN(c2nc3ccc(F)cc3s2)CC1`, the “activity change, negative = cytotoxicity” value is reported as inactive: 33.9%. For `COc1cc(C(=O)NNC2=NC(C)(C)Cc3cc(C)c(C)cc32)cc(OC)c1OC`, the Potency was inconclusive: 15.8 µM [cytotoxic, partial curve, poor fit]. With `Cc1cc2c(cc3c(SCc4nc(-c5ccccc5)oc4C)nnc(C)n32)o1` the “activity change, negative = cytotoxicity” value was inactive: 0.258%. For `CCOC(=O)c1cc(-c2ccc(F)cc2)n(CCC(=O)NCCc2ccc(C)cc2)c1C`, the “activity change, negative = cytotoxicity” value was inactive: 4.06%. With `FC(F)(F)c1cccc(NC(=S)NC(c2ccccc2)c2ccccc2)c1` the Potency was inconclusive: 1.12 µM [cytotoxic, full curve, poor fit]. With `O=S(=O)(NCC(Nc1ccc(Cl)cc1)c1ccccc1)c1ccccc1` (stereo unspecified) the Potency was inconclusive: 12.6 µM [cytotoxic, partial curve]. For `COC(=O)CCNC(=O)N1CCN(c2nnc(C)c3c(C)n(-c4ccc(Cl)cc4)nc23)CC1`, the “activity change, negative = cytotoxicity” value was inactive: -0.936%. With `Cc1ccc(C(=O)Nc2ccccc2C(=O)NC(C(=O)O)C(C)C)cc1` (stereo unspecified) the Potency was inconclusive: 12.6 µM [cytotoxic, partial curve]. For `O=C(COc1ccccc1)Nc1cccc(-c2cn3cccnc3n2)c1`, the “activity change, negative = cytotoxicity” value was inactive: -18.8%. With `COc1ccc(NC(=O)c2cnc[nH]2)cc1` the Potency was active: 17.8 µM. With `COc1cccc(C2=CC(c3ccccc3F)n3c(nc4ccccc43)N2)c1` (stereo unspecified) the Potency was active: 11.2 µM. With `Cc1ccc(C)c(N2CCN(CCCNC(=O)Nc3ccc(Cl)cc3)CC2)c1` the Potency was inconclusive: 31.6 µM [cytotoxic, single point]. In the case of `CCOc1cc(CNC(=O)Cn2c(-c3cccs3)cc3cc(F)ccc32)ccc1OC`, the “activity change, negative = cytotoxicity” value is reported as inactive: -6.99%. For `CCc1ccc(OCC(=O)NC(NC(=S)Nc2ccccc2C)C(Cl)(Cl)Cl)cc1` (stereo unspecified), the Potency was inconclusive: 35.5 µM [cytotoxic, single point]. For `Cc1cc(C)cc(-n2c(SCC(=O)Nc3ccc4c(c3)OCCO4)nc3c([nH]c4ccccc43)c2=O)c1`, the Potency was inconclusive: 3.55 µM [cytotoxic, partial curve, poor fit]. With `CC1=C(c2ccc(C)c(C)c2)S(=O)(=O)N=C1N1CCC(C(=O)NC(C)Cc2ccco2)CC1` (stereo unspecified) the “activity change, negative = cytotoxicity” value was inactive: 9.2%. With `CCn1c(=O)cc(OCC(=O)N2CCN(c3ccc(F)cc3)CC2)c2ccccc21` the “activity change, negative = cytotoxicity” value was inactive: 0.29%. With `COc1ccc2[nH]cc(S(=O)(=O)c3ccc(C)c(C)c3)c(=O)c2c1` the Potency was inconclusive: 35.5 µM [cytotoxic, single point]. For `COc1ccc(Cl)cc1S(=O)(=O)Nc1ccc2[nH]c(=O)[nH]c2c1`, the Potency was inconclusive: 25.1 µM [cytotoxic, single point]. For `CCc1c(C)c2ccc(O)c(CN3CCN(c4ccc(F)cc4)CC3)c2oc1=O`, the “activity change, negative = cytotoxicity” value was inactive: -1.05%. With `Cc1sc2c(c1C)c(=O)n(CCc1ccccc1)c(=O)n2Cc1ccc(C(C)(C)C)cc1` the “activity change, negative = cytotoxicity” value was inactive: -0.996%. With `Cn1c(/C(C#N)=C/c2ccccc2Br)nc2ccccc21` the Potency was inconclusive: 31.6 µM [cytotoxic, single point]. In the case of `CCOC(=O)c1cc2c(=O)n3ccccc3nc2n(C)c1=NC(=O)c1c(-c2c(F)cccc2Cl)noc1C`, the “activity change, negative = cytotoxicity” value is reported as inactive: 1.14%. With `CCN(CC)c1cc(C)c2cc(NC(=O)/C=C/c3cc(OC)c(OC)c(OC)c3)ccc2n1` the Potency was inconclusive: 31.6 µM [cytotoxic, single point]. In the case of `O=C(Cn1nnnc1-c1ccccc1F)Nc1ccc(OC(F)(F)F)cc1`, the “activity change, negative = cytotoxicity” value is reported as inactive: -1.98%. For `Cc1ccc(CN(C(=O)COc2ccccc2Cl)c2ccccn2)o1`, the Potency was inconclusive: 12.6 µM [cytotoxic, partial curve]. With `Cc1ccc(OCCn2c(=O)sc3ccccc32)cc1` the Potency was inconclusive: 14.1 µM [cytotoxic, single point]. For `O=C(NCc1ccco1)c1ccc(Cn2c(SCc3ccccc3)nc3cccnc32)cc1`, the Potency was inconclusive: 12.6 µM [cytotoxic, partial curve]. In the case of `CC(=O)c1ccc(NC(=O)C2CCN(c3nnc(C)c4c(C)n(-c5ccccc5)nc34)CC2)cc1`, the Potency is reported as inconclusive: 31.6 µM [cytotoxic, single point]. For `CCc1ccc(-n2nc(CO)c(C(=O)NCCOC)n2)cc1`, the Potency was inconclusive: 10 µM [cytotoxic, partial curve]. For `COc1ccc(CCNC(=O)C(=O)NCC(c2ccc3c(c2)OCO3)N2CCOCC2)cc1OC` (stereo unspecified), the Potency was inconclusive: 0.562 µM [cytotoxic, single point]. With `Cc1ccc2nc(-c3ccc(NC(=O)COc4ccccc4)cc3)sc2c1` the Potency was inconclusive: 17.8 µM [cytotoxic, partial curve, poor fit]. With `Cc1ccc(C2=Nc3ccccc3N(CC(=O)NCc3ccccc3Cl)C(=O)C2)cc1C` the Potency was inconclusive: 12.6 µM [cytotoxic, single point]. For `O=C(CSc1nnc(-c2ccc([N+](=O)[O-])cc2)o1)Nc1ccccc1`, the Potency was inconclusive: 10 µM [cytotoxic, partial curve]. For `CC(C)Sc1ncc(Cl)c(C(=O)Nc2ccc(S(=O)(=O)N(C)c3ccccc3)cc2)n1`, the “activity change, negative = cytotoxicity” value was inactive: 0.809%. With `CC(=O)Nc1cc(-c2nc3ccccc3s2)ccc1C` the Potency was inconclusive: 10 µM [cytotoxic, partial curve]. For `O=C(CSc1nnc2[nH]c(=O)cc(-c3ccccc3)n12)Nc1ccc(F)cc1F`, the Potency was inconclusive: 1.78 µM [cytotoxic, full curve]. In the case of `CNC(=O)c1c[nH]c2ccc(S(=O)(=O)Nc3cccc(Cl)c3C)cc2c1=O`, the Potency is reported as inconclusive: 12.6 µM [cytotoxic, partial curve]. With `COc1ccc(CCNC(=O)CCCn2nc(C)c3sc4ccccc4c3c2=O)cc1OC` the Potency was inconclusive: 10 µM [cytotoxic, partial curve]. With `CCN(c1ccccc1)S(=O)(=O)c1nnc(NC(=O)c2ccco2)s1` the Potency was inconclusive: 2 µM [cytotoxic, full curve]. With `Cc1ccc(-c2csc(NC(=O)c3cccc(N4C(=O)CCC4=O)c3)n2)o1` the Potency was inconclusive: 15.8 µM [cytotoxic, partial curve]. For `COc1ccccc1Nc1c2c(nc3ccc(NC(=O)c4cccc(F)c4)cc13)CCCC2`, the Potency was inconclusive: 25.1 µM [cytotoxic, single point]. For `Cc1nc2cc(-c3ccccc3)nn2c(C)c1CCC(=O)N1CCN(c2ccccc2)CC1`, the “activity change, negative = cytotoxicity” value was inactive: -7.14%. With `CCOC(=O)CSc1nc2ccc(NC(=O)c3ccccc3)cc2s1` the Potency was inconclusive: 25.1 µM [cytotoxic, single point]. In the case of `Cc1cccc(-n2nnnc2S(C)(=O)=O)c1`, the Potency is reported as active: 14.1 µM. For `COCCCNC(=O)CCn1c(=O)c2ccccc2n(CC(=O)Nc2cc(Cl)ccc2OC)c1=O`, the “activity change, negative = cytotoxicity” value was inactive: 2.37%. For `Cc1cc(NS(=O)(=O)c2ccc3oc(=O)c4ncn(C)c4c3c2)ccc1Br`, the Potency was inconclusive: 25.1 µM [cytotoxic, single point].

From PubChem BioAssay AID903 (National Center for Advancing Translational Sciences (NCATS), 2007)
Potency is the fitted concentration of half-maximal effect; tags give direction and shape of the fitted curve.
